From PubChem BioAssay AID686979 (National Center for Advancing Translational Sciences (NCATS), 2013)
About 50,000 (12%) of roughly 420,000 compounds were called active. Inconclusive results, whose numbers are uncertain, are shown with a selection of clear calls. Calls come from the whole dose curve; as a rule, active = well fitted inhibition curve with a large enough effect; inconclusive = small, poorly fitted or top-dose-only effect; inactive = flat fitted curve, though single readings scatter. Potencies of inconclusive entries are left out as doubtful fits.

Assay: qHTS for Inhibitors of human tyrosyl-DNA phosphodiesterase 1 (TDP1): qHTS in cells in presence of CPT; note: nearly all actives have a fitted effect of over 55% in size
Settings: chicken DT40 Tdp1-/-;hTDP1 cells + 20 nM CPT, ATP luminescence, 48 h; activity change, negative = growth inhibition: at 46.2 µM (top of the series) unless noted
Method in brief: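 Chicken DT40 Tdp1-/- cells stably complemented with human TDP1 were seeded at 400 cells/well in medium containing 20 nM camptothecin, exposed to pin-transferred compounds, and grown at 37 °C for at least 48 hr. Viability was read as ATP luminescence.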
% is set by controls: 0 for no effect and ±100 for the full control effect; potency is the fitted concentration of half-maximal effect; tags give direction and shape of the fitted curve.

| SMILES | Potency | activity change, negative = growth inhibition |
| --- | --- | --- |
| COc1ccc(-n2ccc(=O)c(C(=O)O)n2)c(OC)c1 | inactive | – |
| COc1ccc(CCNC(=S)Nc2cc(C)cc(C)c2)cc1 | inconclusive [inhibitor, single point] | – |
| Cc1ccc(S(=O)(=O)Nc2ccc3c(c2)nc(CCN2CCCC2)n3C)cc1 | inconclusive [inhibitor, single point] | – |
| N#Cc1cc2c(nc1SCc1ccncc1)CCC2 | active: 18.4 µM | – |
| CCCN1CCC(C)(C(=O)Nc2ccccc2Oc2ccccc2)C1 (configuration not stated) | inactive | – |
| Cc1ccc(NC(=O)c2cc(-c3ccc4c(c3)OCO4)on2)cc1C | inconclusive [inhibitor, single point] | – |
| COCCNc1ncnc2ccc(-c3cccc(NS(C)(=O)=O)c3)cc12 | inconclusive [inhibitor, single point] | – |
| Cc1ccc(S(=O)(=O)N(Cc2ccc(F)cc2)Cc2ccco2)cc1 | inactive | – |
| COc1ccc(Cl)cc1NC(=O)CN(C)C1CCCCC1 | inconclusive [inhibitor, single point] | – |
| COc1ccc(C)cc1NCC(=O)Nc1ccc(C(C)(C)C)cc1 | inconclusive [inhibitor, single point] | – |
| COc1ccc(C2CC(c3ccccc3)=NN2C(=O)COC(=O)c2nc3nc(C)cc(C)n3n2)cc1 (configuration not stated) | inactive | – |
| CS(=O)(=O)Nc1cccc(-c2nc(NCc3cccnc3)c3ccccc3n2)c1 | inconclusive [inhibitor, single point] | – |
| c1ccc(Nc2ncnc3c2oc2ccccc23)cc1 | active: 10.3 µM | – |
| Cc1c(NC(=S)N/N=C/c2ccc(N(C)C)cc2)c(=O)n(-c2ccccc2)n1C | active: 16.4 µM | – |
| Cc1ccc(NC(=O)Cc2coc3c(C)c(C)ccc23)c(C)c1 | inconclusive [inhibitor, single point] | – |
| COc1ccc(Sc2ccc(NC(=O)c3ccccc3Cl)cc2C#N)cc1 | inconclusive [inhibitor, single point] | – |
| COc1ccc(C(=O)NCc2nc(-c3cccc(NC(=O)c4ccc(C)s4)c3)oc2C)cc1 | – | inactive: -0.246% [at 9.04 µM] |
| Fc1ccc2nc(Nc3nc4c(F)cccc4s3)sc2c1 | inconclusive [inhibitor, single point] | – |
| O=C(NCCC1=CCCCC1)c1cnccn1 | inactive | – |
| COc1ccc(NC(=O)c2ccc3[nH]c(C)cc(=O)c3c2)cc1 | inactive | – |
| Cc1ccc(-n2c(C)c3c(C)nnc(C)c3c2C)cc1N | active: 20.6 µM | – |
| CC(C)C(=O)N1CCC1(C)C(=O)Nc1ccc(-n2cccc2)cc1 (configuration not stated) | inconclusive [inhibitor, partial curve] | – |
